The supplement of paper PMC3334620
Whole data set: some 33,000 sequences, median “E-score (-0.5 to 0.5)” near -0.032, cut for the highest 2% near 0.36. Some of the results follow.

These sequences were tested against T1, Sko1 (UniProt Q02100) (assay: PBM E-score (8-mer binding enrichment) (E-score (-0.5 to 0.5)); higher = stronger / more preferred TF binding; most listed sequences are background and not binding sites). Settings: protein concentration: 200 nM; construct: GST-full length.
T1 sequence: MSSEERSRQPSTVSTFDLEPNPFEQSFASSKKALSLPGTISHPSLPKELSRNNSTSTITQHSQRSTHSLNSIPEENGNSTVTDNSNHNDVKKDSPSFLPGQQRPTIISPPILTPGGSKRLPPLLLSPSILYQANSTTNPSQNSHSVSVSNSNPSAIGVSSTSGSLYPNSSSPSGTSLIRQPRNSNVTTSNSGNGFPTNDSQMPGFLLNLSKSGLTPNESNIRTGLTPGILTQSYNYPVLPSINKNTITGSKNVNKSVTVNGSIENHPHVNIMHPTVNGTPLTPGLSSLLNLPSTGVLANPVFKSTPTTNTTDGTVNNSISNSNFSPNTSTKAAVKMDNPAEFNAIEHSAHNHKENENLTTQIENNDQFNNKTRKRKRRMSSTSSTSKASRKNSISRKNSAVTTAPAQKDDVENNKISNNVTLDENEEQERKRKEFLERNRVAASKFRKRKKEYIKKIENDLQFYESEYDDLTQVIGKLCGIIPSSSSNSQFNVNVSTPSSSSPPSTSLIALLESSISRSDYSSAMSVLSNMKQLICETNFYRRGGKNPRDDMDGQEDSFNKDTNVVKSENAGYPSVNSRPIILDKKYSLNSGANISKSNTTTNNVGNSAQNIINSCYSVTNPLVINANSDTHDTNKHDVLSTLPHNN
Summary of the method: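 Masliner-normalised scans of fluorescent anti-GST signal were the basis for scoring. That signal came from GST-tagged yeast transcription factors applied at about 100-200 nM to double-stranded universal all-10-mer Agilent arrays on fresh or once-stripped slides. Each ungapped eight-base word, pooled with its reverse complement, received an E-score from the Universal PBM Analysis Suite.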

Sequence | PBM E-score
AGTATACG | 0.267
ATAACATC | 0.263
ACTACGCC | -0.00632
CAATAGCA | -0.132
GGAAAGAA | 0.0108
ATGGTATA | 0.139
ACTGGGTC | -0.191
TGGCGCCA | 0.0245
CCTGGGAC | -0.161
TGCGCCAA | -0.0647
CGGGGTCA | -0.241
AACCTCTG | -0.248
CCCTCCCA | -0.0549
AACAAGTA | 0.0824
AAGATCCA | -0.253
CTTTCTTA | 0.171
GTTCAATA | 0.097
CTTCCGGA | -0.157
GCGTAATA | 0.421
AGTACGCG | 0.236
GACTCGGC | -0.355
TATCCCCA | -0.0445
GAATAGTC | -0.0748
CACTCCAA | -0.0776
CAAAAGTC | -0.111

Sequence | PBM E-score
ATAGCTCC | -0.0145
ATGGGAAA | -0.211
ACCATAGT | -0.189
GTGTCTTA | 0.133
GCTATACA | 0.0971
CGCCATCC | -0.00253
GTAAACAA | 0.27
AACGATGC | -0.0786
CTCAATGC | -0.0345
AGTTTCAA | -0.0302
ATGTTGAA | 0.0028
AAACGAGT | -0.0854
AGCTCCTC | 0.00546
CCGTGCCC | -0.355
TCCACGAA | 0.212
CCCCACGA | -0.128
CATGAGGA | -0.0343
GACATTAA | 0.158
CGACTTGC | -0.0556
TACAGCTA | -0.0853
ACGCAAAT | 0.322
CGTGAAAC | 0.203
ACAATGAT | 0.246
GTGAGGAA | -0.117
TCGGGCAA | -0.0812

Sequence | PBM E-score
GTTGCGAA | 0.222
AGACAGCG | -0.238
GTCGGTAA | -0.0021
CGCACGGC | 0.0215
ATATAAAC | 0.279
AGTCGGCC | -0.233
GGGTTTAA | -0.144
CTTACCAC | -0.0202
GAGGAATC | -0.152
AATACAAC | 0.0837
AATAACCA | 0.168
ATGATTAC | 0.317
AGCCAGTA | -0.322
AAATAAAA | 0.163
ACATTCAG | -0.188
TAGATATA | 0.17
AAGCACTA | -0.0212
TATTGGCA | -0.0987
CACTAGGA | -0.0975
GCTCCTTA | -0.222
AACTACGA | 0.198
TCGCCCCA | -0.0387
CCACTACC | -0.214
CCTCCGAC | -0.176
GGAGCGCC | -0.447

Sequence | PBM E-score
CTAACACA | 0.0923
CCCGAGCC | -0.235
ATGTTAGA | 0.085
CTATTATA | 0.0584
AACAGGAA | 0.0594
CATCTGTC | -0.164
CCCAAATC | -0.147
CCAGTCCA | -0.429
ATCACTCG | 0.0477
CCAGGATC | -0.228
GTTTTAGA | 0.156
CCTAAAGG | -0.262
AGCTGCAG | -0.0895
AGCAGGTC | -0.164
AGACTGCA | -0.234
AGTAAACG | 0.0954
AGATGCCT | -0.0581
CAAATCAC | 0.0593
CGATGAAA | 0.134
CATATGGG | -0.0901
CCTCGGAC | -0.313
ACTCGACG | 0.177
GCCTCCGC | -0.25
GTCGCACA | -0.0203
GCGCCAAA | -0.0722

Sequence | PBM E-score
CCGATTAA | -0.0807
GCCGTCCC | -0.0843
AATACTTC | 0.109
CGTAACCC | 0.289
CATTGTCC | -0.124
ACATCGTC | 0.204
CGGTGCAG | -0.165
ACCTCTAC | 0.107
GGACCCCA | -0.18
CAACTTTC | 0.106
GAGAGGTA | -0.172
GTTAACAA | 0.0704
CTCTTTGC | -0.136
AACAGTTC | 0.0516
TATCTGAA | 0.00502
CTCGACCC | -0.201
AAGACGGA | -0.0952
GAAGAGAA | -0.0172
AATTTCGA | 0.155
ATAGGAGC | -0.102
CTAGACAC | -0.0241
GTAGATTA | 0.269
AAAAACCG | -0.0151
TGCAGGAA | 0.0526
CCTAATTC | 0.0452

Sequence | PBM E-score
ATAGGCTA | -0.0866
CACCTCCA | -0.0533
CACGTGCG | 0.353
TAACAACA | 0.125
ATTAGCCG | -0.0929
CTTGTTGC | 0.128
ACCATAGC | -0.261
ACACGTTA | 0.318
AAAAATTC | 0.0675
AAAAGCAC | -0.151
CATGGGTA | -0.0852
ATAATCAG | 0.148
CGTATGAC | 0.445
GTCTGGTA | 0.0221
GAGGACCC | -0.302
GATGAAGC | -0.198
GGCTCGAA | -0.071
TCTACCCA | -0.0345
AAGCCTGC | -0.117
CACGTAAG | 0.448
CCGCTGTC | -0.153
AAATTTGC | 0.0217
AAATACTA | 0.199
ATTGACAA | 0.0901
TATACCGA | 0.00019

Sequence | PBM E-score
CCAGCAAA | -0.0829
CAATAGGG | -0.189
ACCTAGCG | -0.0355
AGGGGCGG | -0.284
ATAGCTGG | -0.121
AAACCCAC | 0.0716
ACATTGTC | 0.178
CGAGTCCC | -0.239
GTTTAAGA | -0.0752
ACGCAGAA | 0.241
ACAATTGA | 0.129
ACCGCAGC | -0.279
CTCTCAGC | -0.107
AGTTTGAA | 0.148
CCCGCTCG | -0.16
CCACGGGC | -0.37
AGATTAAC | 0.132
ATACCAGG | -0.146
ATAGTACG | 0.264
ATTGGACA | -0.0669
CAATGATC | 0.0721
CATCGATG | 0.0694
